Assay results from the supplement of paper PMC12355420.
Where a name gives a salt, the structure may show the parent alone. The list shows a part of the results. No stated cut-off is given here; in the data, active = 0.5 or less and inactive = the rest. Many values rest on one well or one pass, so single values are uncertain.

Tested on: HeLa VPS33A R498W KI + HA-SDC1-FLAG
Test: relative GAG core protein HA-SDC1 amount per cell number vs DMSO (fraction of DMSO); HeLa model of a glycosaminoglycan (GAG) storage disease; KI is knock-in and KO knock-out; SDC1 is syndecan 1; higher = more SDC1 (GAG core protein)
Details: 50 µM; 24 h
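Further: HA-SDC1 level read out by In-Cell Western staining with an anti-HA antibody against the N-terminal tag, screening FDA-approved library drugs.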

Relative GAG core protein HA-SDC1 amount per cell number, inactive:
N#C[C@@H]1C[C@@H]2C[C@@H]2N1C(=O)[C@@H](N)C12CC3CC(CC(O)(C3)C1)C2 [Saxagliptin] 1.12
CCC(=O)NS(=O)(=O)c1ccc(-c2c(-c3ccccc3)noc2C)cc1 [Parecoxib Sodium] 1.16
Cc1c(N(C)C)c(=O)n(-c2ccccc2)n1C [Amidopyrine] 0.812
CC(=O)O[C@H]1Cc2ccccc2N(C(N)=O)c2ccccc21 [Eslicarbazepine acetate] 0.792
O=CC[C@@H](O)[C@H](O)[C@H](O)CO [2-Deoxy-D-glucose] 0.827
CCCc1nc(C)c2c(=O)nc(-c3cc(S(=O)(=O)N4CCN(CC)CC4)ccc3OCC)[nH]n12 [Vardenafil] 0.981
Nc1nc(N)nc(-c2cc(Cl)ccc2Cl)n1 [Irsogladine] 0.916
CO[C@@]1(NC(=O)C(C(=O)O)c2ccc(O)cc2)C(=O)N2C(C(=O)O)=C(CSc3nnnn3C)CO[C@@H]21 (some centres undefined) [Moxalactam (sodium salt)] 0.907
N#CC1(c2ccc(NC(=O)c3cccnc3NCc3ccncc3)cc2)CCCC1 [Apatinib] 0.638
O=c1c(-n2ccnn2)c[nH]n1-c1cc(N2CCOCC2)ncn1 [Molidustat (BAY85-3934)] 0.757
CN(c1nccc(=O)[nH]1)C1CCN(c2nc3ccccc3n2Cc2ccc(F)cc2)CC1 [Mizolastine] 0.501
CCCCN1CCCCC1C(=O)Nc1c(C)cccc1C (centres undefined) [Bupivacaine HCl] 0.968
O=c1[nH]c(=O)n(C2CCCO2)cc1F (centres undefined) 1.16
OCc1ccc(O[C@@H]2O[C@H](CO)[C@@H](O)[C@H](O)[C@H]2O)cc1 [Gastrodin] 1.04
CN(C)CC(c1ccc(O)cc1)C1(O)CCCCC1 (centres undefined) [Desvenlafaxine] 0.913
CCCN(CCC)S(=O)(=O)c1ccc(C(=O)O)cc1 [Probenecid] 1.02
CCCCC1=NC2(CCCC2)C(=O)N1Cc1ccc(-c2ccccc2-c2nnn[nH]2)cc1 [Irbesartan] 0.926
Nc1ccc(S(N)(=O)=O)cc1 [Sulfanilamide] 0.834
Nc1nnc(-c2cccc(Cl)c2Cl)c(N)n1 [Lamotrigine] 0.873
NC(=O)N1c2ccccc2C=Cc2ccccc21 [Carbamazepine] 1.08
CN1CCc2nc(C(=O)N[C@@H]3C[C@@H](C(=O)N(C)C)CC[C@@H]3NC(=O)C(=O)Nc3ccc(Cl)cn3)sc2C1 [Edoxaban] 0.847
CC(=O)N[C@H](Cc1ccc2ccccc2c1)C(=O)N[C@H](Cc1ccc(Cl)cc1)C(=O)N[C@H](Cc1cccnc1)C(=O)N[C@@H](CO)C(=O)N[C@@H](Cc1ccc(O)cc1)C(=O)N[C@H](CCCNC(N)=O)C(=O)N[C@@H](CC(C)C)C(=O)N[C@@H](CCCNC(=N)N)C(=O)N1CCC[C@H]1C(=O)N[C@H](C)C(N)=O [Cetrorelix] 0.903
NC[C@H]1O[C@H](O[C@H]2[C@H](O[C@@H]3O[C@H](CO)[C@@H](O)[C@H]3O)[C@@H](O)[C@H](N)C[C@@H]2N)[C@H](N)[C@@H](O)[C@@H]1O [Ribostamycin Sulfate] 0.975
N[C@@H](C=O)[C@@H](O)[C@H](O)[C@H](O)CO [Chitosamine hydrochloride] 0.962
O=C(O)[C@H]1O[C@@H](Oc2cc3oc(-c4ccc(O)cc4)cc(=O)c3c(O)c2O)[C@H](O)[C@@H](O)[C@@H]1O [Scutellarin] 1.07
O=C(O)c1ccc(O)c(O)c1 [3,4-Dihydroxybenzoic acid] 0.84
C=C1CC[C@@H]2[C@](C)(CO)[C@H](O)CC[C@@]2(C)[C@H]1C/C=C1\C=COC1=O [Dehydroandrographolide] 0.731
Cc1c(C)c2c(c(C)c1O)CC[C@@](C)(CCC[C@H](C)CCC[C@H](C)CCCC(C)C)O2 [alpha-tocopherol] 1.06

Relative GAG core protein HA-SDC1 amount per cell number, active:
CN(C)C(=O)c1ccc(S(=O)(=O)c2ccc(NC(=O)[C@@](C)(O)C(F)(F)F)c(Cl)c2)cc1 0.397
